Experimental findings from article PMC4242493 are described below.

The other results are listed elsewhere or left out. The list includes weakly bound sequences.

The target of this assay is MaxL homodimer (UniProt P61244). Put plainly: universal protein-binding microarray (PBM). The following applies: PBS-based mixture, 10 nM His-tagged protein dimer, 2% milk, 200 ng/uL BSA, 50 ng/uL salmon testes DNA, 0.02% TX-100; detection with Alexa 488 anti-His …; high values mean tight binding; most listed sequences are background and not binding sites; double strand, one strand shown.
UniProt P61244, sequence (P61244 whole entry): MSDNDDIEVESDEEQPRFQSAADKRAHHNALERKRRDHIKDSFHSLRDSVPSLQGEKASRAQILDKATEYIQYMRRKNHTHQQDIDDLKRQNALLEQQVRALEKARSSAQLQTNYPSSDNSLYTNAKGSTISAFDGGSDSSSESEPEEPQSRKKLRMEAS
Regarding ATCGCGGA, the binding signal (normalized occupancy) stood at 0.0705.
As for ATTGCCAA, the binding signal (normalized occupancy) is 0.0765.
With GTGGCCTA, the binding signal (normalized occupancy) came out at 0.0811.
Take CATGTGCA: the binding signal (normalized occupancy) is 0.149.
Then CAGAAATA, with 0.0807; and ATAAGCCA, with 0.0765; and GGTTTGAA, with 0.0749.
As to AGTTACAG, the binding signal (normalized occupancy) was 0.0738.
Take TCACTGAA: the binding signal (normalized occupancy) stood at 0.073.
As to GGAGCCCA, the binding signal (normalized occupancy) came to 0.0741.
As to AGCGTTCG, the binding signal (normalized occupancy) stood at 0.0661.
As to AGCCTCGA, the binding signal (normalized occupancy) was 0.073.
For the sequence TCGGATCA, the binding signal (normalized occupancy) was found to be 0.075.
Regarding GAATCTAC, the binding signal (normalized occupancy) worked out at 0.0778.
Regarding ATTTAAGC, the binding signal (normalized occupancy) is 0.0765.
As for GCACATAA, the binding signal (normalized occupancy) came out at 0.0796.
Turning to CAAATCCG, the binding signal (normalized occupancy) came to 0.0718.
On to CGCGTCCG, for which the binding signal (normalized occupancy) amounted to 0.0754.
As to CATCACAC, the binding signal (normalized occupancy) worked out at 0.0905.
Then TATCCCGA, with 0.0764; and ACAAGGAA, with 0.0781; and ACCCTCAG, with 0.0731.
Regarding CTGCAAAC, the binding signal (normalized occupancy) is 0.0766.
Then GAAGGGAA, with 0.0698.
Then AGTTCAGA, with 0.0703.
Turning to ACGTAGCT, the binding signal (normalized occupancy) came out at 0.0767.
For CGAGGGAG, the binding signal (normalized occupancy) was found to be 0.0757.
GAGCAACC: the binding signal (normalized occupancy) turned out to be 0.07.
The same measure for AGTGAACG: 0.0728.
Take CGGTTTCC: the binding signal (normalized occupancy) was 0.0712.
On to ACGCACGG, for which the binding signal (normalized occupancy) stood at 0.0828.
On to TACATTGA, for which the binding signal (normalized occupancy) came out at 0.0774.
CGGCTAGA: the binding signal (normalized occupancy) turned out to be 0.0678.
On to AAGGGATG, for which the binding signal (normalized occupancy) worked out at 0.0764.
As for CGTAAGAG, the binding signal (normalized occupancy) was 0.0734.
The same measure for AACATATG: 0.1; for CGCGAGCA: 0.0818.
Then CGGTGTCA, with 0.0786; and CCTTATCG, with 0.0766.
For the sequence GGGCCATA, the binding signal (normalized occupancy) is 0.074.
For CTCAGGAG, the binding signal (normalized occupancy) worked out at 0.0722.
Turning to AAATCTGG, the binding signal (normalized occupancy) is 0.0714.
With TGCAGCAA, the binding signal (normalized occupancy) was found to be 0.0766.
Then GCGCAGCC, with 0.0617; and CTCTAGGC, with 0.0692.
Take CGCAGCCG: the binding signal (normalized occupancy) is 0.071.
Turning to AGAACAGG, the binding signal (normalized occupancy) stood at 0.0731.
Take CTCCTGGA: the binding signal (normalized occupancy) is 0.0735.
Consider ACTGGATC, for which the binding signal (normalized occupancy) worked out at 0.0721.
Turning to ATCCACTA, the binding signal (normalized occupancy) came to 0.0778.
Then AGTGGATA, with 0.0812; and CCATATAC, with 0.0895; and AATTTGTA, with 0.0777.
Then CAGTCGAG, with 0.0685; and ACGTATCA, with 0.0795.
Then CATCGGTA, with 0.0736.
Turning to GAACTCGC, the binding signal (normalized occupancy) worked out at 0.0767.
With GCGTTCAC, the binding signal (normalized occupancy) worked out at 0.0758.
For AGTTCTCC, the binding signal (normalized occupancy) came to 0.074.
As to GCGTGAAC, the binding signal (normalized occupancy) came to 0.0873.
As to GGTTAGCA, the binding signal (normalized occupancy) was found to be 0.0754.
As to ACAAATGT, the binding signal (normalized occupancy) was 0.079.
On to AAATCGGC, for which the binding signal (normalized occupancy) is 0.0666.
On to AGCGGTAT, for which the binding signal (normalized occupancy) amounted to 0.0792.
On to ATTGAAAT, for which the binding signal (normalized occupancy) stood at 0.0772.
In the case of ACAAAATA, the binding signal (normalized occupancy) came out at 0.0817.
Turning to CACCACGA, the binding signal (normalized occupancy) came to 0.082.
Consider CTCCCCCA, for which the binding signal (normalized occupancy) stood at 0.0787.
With GCGTAAGC, the binding signal (normalized occupancy) came out at 0.0709.
Consider GGGCTAGA, for which the binding signal (normalized occupancy) was found to be 0.0765.
For the sequence CAGGATAC, the binding signal (normalized occupancy) was 0.0735.
The same measure for GCGTATTA: 0.0746; for CAATCTCC: 0.0739; for CATGAAAA: 0.081.
On to CCCTTGGC, for which the binding signal (normalized occupancy) came to 0.0696.
For the sequence AAACTTAT, the binding signal (normalized occupancy) stood at 0.0789.
Then AAGACCAG, with 0.0728; and GCCGACAC, with 0.0731.
For ACGACCTG, the binding signal (normalized occupancy) is 0.0764.
As for ACGAGTCG, the binding signal (normalized occupancy) amounted to 0.0795.
For the sequence ATCGACGA, the binding signal (normalized occupancy) was found to be 0.0701.
The same measure for TATGCGCA: 0.0804; for CACCTGAC: 0.0973; for ACAACTTC: 0.0755.
On to CCAACCCA, for which the binding signal (normalized occupancy) was 0.0759.
Turning to CGTTGCGA, the binding signal (normalized occupancy) stood at 0.0768.
The same measure for CTATTCAG: 0.0714; for AGTGAAGC: 0.0734; for AACAATAC: 0.076.
Then GCAGACCC, with 0.0687.
On to AAGTCGAT, for which the binding signal (normalized occupancy) was 0.0737.
GCAGTGTA: the binding signal (normalized occupancy) worked out at 0.0735.
For the sequence AGCTCCGA, the binding signal (normalized occupancy) came to 0.0643.
As to GTCACGTA, the binding signal (normalized occupancy) was determined as 0.0838.
CGTGAGAG: the binding signal (normalized occupancy) is 0.0931.
Consider ATCCTATC, for which the binding signal (normalized occupancy) came out at 0.0821.
For TTGAAAAA, the binding signal (normalized occupancy) worked out at 0.0753.
Then GCTTCGGA, with 0.0717.
The same measure for AGAATAAA: 0.0773; for CAGATCTC: 0.0805.
With CAAGGCAA, the binding signal (normalized occupancy) amounted to 0.075.
For the sequence GAACGCCA, the binding signal (normalized occupancy) turned out to be 0.0739.
The same measure for GATTGGAC: 0.0752.
In the case of GAAATAAC, the binding signal (normalized occupancy) came to 0.0798.
For the sequence CTACCGAC, the binding signal (normalized occupancy) was 0.0727.
Then GAACGTCA, with 0.0757.
On to ACACAGGC, for which the binding signal (normalized occupancy) turned out to be 0.0789.
Then GGTTTCAC, with 0.0735.
As for ACAGGCTC, the binding signal (normalized occupancy) is 0.0724.
In the case of ACGCAAGG, the binding signal (normalized occupancy) worked out at 0.081.
As to AACCAAGT, the binding signal (normalized occupancy) worked out at 0.0721.
The same measure for ACAGTACT: 0.0757.
As for AGCGGCCA, the binding signal (normalized occupancy) came to 0.067.
The same measure for AGGGTAAT: 0.0774; for ATCTGCCA: 0.0792; for ACGTCACG: 0.0919.
Regarding ACTTCAGG, the binding signal (normalized occupancy) is 0.0725.
The same measure for CCTTAAAG: 0.0719; for CCCCCACG: 0.0958.
With ACAGGCGA, the binding signal (normalized occupancy) worked out at 0.0709.
Turning to GTTGCTTA, the binding signal (normalized occupancy) was found to be 0.0771.
Then CATCTTGC, with 0.0754.
As for ATTTACTG, the binding signal (normalized occupancy) is 0.0772.
The same measure for GAGCTGTA: 0.0768; for ACATATAC: 0.0883; for ATGAGATC: 0.0897.
For the sequence CTGAATCC, the binding signal (normalized occupancy) came to 0.0737.
Turning to ATCAGGAC, the binding signal (normalized occupancy) is 0.0791.
With CAATTCGA, the binding signal (normalized occupancy) is 0.0737.
As to CCCGCTTA, the binding signal (normalized occupancy) is 0.0716.
As to ATGTTGAG, the binding signal (normalized occupancy) turned out to be 0.0802.
AACAGACA: the binding signal (normalized occupancy) was found to be 0.0753.
The same measure for AACGTCTG: 0.0724.
Then ATTGTTCG, with 0.0724; and AGAATGGC, with 0.0756.
For AAATGGCA, the binding signal (normalized occupancy) was 0.0805.
The same measure for TACTTGCA: 0.0788; for ATGGTTGC: 0.0766.
Then GGCATTAC, with 0.0758; and GCTGAATA, with 0.0764; and AACTCAAT, with 0.0754.
Consider CAAGTAAA, for which the binding signal (normalized occupancy) came out at 0.0734.
Turning to GAGAATGA, the binding signal (normalized occupancy) turned out to be 0.0781.
Turning to ACCAGAGA, the binding signal (normalized occupancy) is 0.0756.
Turning to AAGTTGTC, the binding signal (normalized occupancy) worked out at 0.0753.
Take AACCAATG: the binding signal (normalized occupancy) came to 0.0758.
Then GACCGGTC, with 0.0725; and CATACACG, with 0.097; and GACTAGTC, with 0.0674.
As to TCAATTGA, the binding signal (normalized occupancy) worked out at 0.0775.
In the case of GAACTTAC, the binding signal (normalized occupancy) was found to be 0.0729.
Turning to AAGGCCCA, the binding signal (normalized occupancy) turned out to be 0.0733.
Then AGCCCGAT, with 0.0746; and CCCGAGCA, with 0.0798.
The same measure for GACAAGAC: 0.0699.
On to ACAAACTA, for which the binding signal (normalized occupancy) is 0.0728.
Consider AAGGAGTC, for which the binding signal (normalized occupancy) was 0.0727.
As for ACTAATAC, the binding signal (normalized occupancy) is 0.0751.
With AAGAGGTA, the binding signal (normalized occupancy) turned out to be 0.0739.
Take CGGCCCGC: the binding signal (normalized occupancy) came out at 0.0677.
In the case of CTCGCTCA, the binding signal (normalized occupancy) came out at 0.0727.
Turning to ACTAGAAT, the binding signal (normalized occupancy) worked out at 0.0797.
Take AGGATCCA: the binding signal (normalized occupancy) was determined as 0.0741.
For the sequence GCTTCCCA, the binding signal (normalized occupancy) is 0.0741.
Consider ATGTGACC, for which the binding signal (normalized occupancy) amounted to 0.0865.
ACCATCCG: the binding signal (normalized occupancy) was 0.0823.
AAATTAAA: the binding signal (normalized occupancy) was found to be 0.0677.
On to AAGTACGG, for which the binding signal (normalized occupancy) amounted to 0.0779.
In the case of GCGTGAGA, the binding signal (normalized occupancy) was 0.0965.
Take GCGGTGAA: the binding signal (normalized occupancy) came out at 0.0716.
For AGAGCACC, the binding signal (normalized occupancy) turned out to be 0.0746.
CCTGTATA: the binding signal (normalized occupancy) was found to be 0.0836.
